Experimental data: the supplement of paper PMC12217912
The list shows a part of the results. The full chains were built here from the parent and the listed change. Inactive controls read about 0.05.

B1: TEV protease; numbered along this chain (parent)
chain: MGESLFKGPRDYNPISSSICHLTNESDGHTTSLYGIGFGPFIITNKHLFRRNNGTLVVQSLHGVFKVKDTTTLQQHLVDGRDMIIIRMPKDFPPFPQKLKFREPQREERICLVTTNFQTKSMSSMVSDTSCTFPSGDGIFWKHWIQTKDGQCGSPLVSTRDGFIVGIHSASNFTNTNNYFTSVPKNFMELLTNQEAQQWVSGWRLNADSVLWGGHKVFMVKPEEPFQPVKEATQL

Variants of: B1
Experiment: raw area under fraction-flipped curve 0-4 h after induction (AUC4h, not background-subtracted), DNA-recorder readout of cleavage of the substrate (dimensionless); higher = more cleavage of the substrate by the protease variant
Conditions: temperature: 34 °C; time window: 0-4 h after rhamnose induction
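Also: Bxb1 expression induced with 0.2% (w/v) L-rhamnose at OD600 near 0.5, cultures sampled hourly, flipped fraction per protease–substrate barcode pair counted by paired-end Illumina sequencing.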

Variant | area with substrate KNLYFQS | area with substrate MNLYFQS | area with substrate TNLYFQS | area with substrate WNLYFQS | area with substrate YNLYFQS | area with substrate PNLYFQS | area with substrate SNLYFQS | area with substrate NNLYFQS | area with substrate VNLYFQS | area with substrate LNLYFQS
T174E | 0.0541 | 0.0588 | 0.0599 | 0.056 |  |  |  |  |  | 
T174I |  |  | 0.0382 | 0.0496 | 0.0725 |  |  |  |  | 
L99W | 0.0501 | 0.0633 |  |  |  |  |  |  |  | 
L99N |  |  | 0.0786 | 0.0496 | 0.0472 | 0.0563 | 0.0619 |  |  | 
F38E |  | 0.0498 |  |  |  |  |  |  |  | 
D91E |  |  |  |  | 0.0588 | 0.0594 | 0.085 |  |  | 
V58G | 0.0621 |  |  | 0.0407 |  | 0.0585 |  | 0.0457 |  | 
V58S |  |  | 0.0397 | 0.0593 | 0.0543 |  | 0.0394 | 0.0522 | 0.0507 | 
L205S |  |  | 0.0722 | 0.0661 | 0.0309 |  |  |  |  | 0.0535
Q118C |  |  |  |  | 0.0671 | 0.0724 |  |  |  | 
T233Y |  |  | 0.0837 | 0.0772 |  | 0.0536 | 0.0642 |  |  | 
K66Q |  |  |  |  | 0.0726 | 0.0711 | 0.0697 |  |  | 
K66A |  |  |  | 0.0588 |  |  | 0.0686 |  |  | 
K66H |  |  | 0.0622 | 0.0678 |  |  | 0.0723 | 0.0468 |  | 0.058
Q97G | 0.0854 |  |  |  |  |  |  |  |  | 
Q97T |  |  | 0.0683 |  |  |  |  |  |  | 0.0588
V165L | 0.0661 |  | 0.104 |  | 0.0704 | 0.0667 | 0.0527 |  | 0.0674 | 
A170R |  |  | 0.0595 |  | 0.0545 |  |  |  |  | 
A170F | 0.0592 |  |  |  |  |  |  |  |  | 
A170S |  | 0.07 |  | 0.0552 |  |  |  |  |  | 
A170Q |  |  |  |  |  |  |  |  |  | 0.0695
W199Q | 0.0383 |  | 0.0656 |  | 0.0565 |  | 0.0674 |  |  | 
N172A |  |  |  |  |  | 0.0675 | 0.0435 |  |  | 
N172Q |  |  | 0.0431 |  |  |  |  |  |  | 
N172W |  |  | 0.0632 | 0.0656 |  |  |  |  |  | 0.0897

Variant | area with substrate KNLYFQS | area with substrate MNLYFQS | area with substrate TNLYFQS | area with substrate WNLYFQS | area with substrate YNLYFQS | area with substrate PNLYFQS | area with substrate SNLYFQS | area with substrate NNLYFQS | area with substrate VNLYFQS | area with substrate LNLYFQS
E223A |  |  |  | 0.0597 |  |  |  |  |  | 
W141N |  |  |  |  | 0.0606 |  | 0.0403 |  | 0.0627 | 
Q227A |  |  | 0.0756 |  |  |  | 0.0598 |  |  | 
G166K |  |  | 0.0556 |  |  |  |  |  |  | 
G166E |  | 0.0539 | 0.0518 | 0.0502 |  | 0.0503 |  |  |  | 
W212A |  |  | 0.0527 |  |  |  |  |  |  | 0.0659
F92K |  |  |  | 0.0346 |  |  |  | 0.0513 |  | 
K230A |  |  | 0.0588 |  |  |  |  |  |  | 0.0351
Q194I |  |  |  |  | 0.0689 |  |  |  |  | 
E195T |  |  |  | 0.0502 |  |  | 0.047 |  |  | 0.0606
E195P |  |  |  |  |  | 0.0614 |  |  |  | 
E195H |  |  | 0.0688 | 0.0563 |  |  |  |  |  | 
E195S |  |  | 0.0612 |  | 0.071 | 0.054 |  |  |  | 0.0697
Q75D |  | 0.0696 | 0.0595 | 0.057 |  | 0.0549 |  |  |  | 
N206P | 0.0447 |  |  |  | 0.0482 |  |  |  |  | 
F101H | 0.0569 |  | 0.0486 |  | 0.047 |  |  |  |  | 0.0421
S209R |  |  | 0.0608 |  | 0.0471 | 0.0785 |  | 0.0602 |  | 
S209Y | 0.0774 | 0.0872 |  |  |  |  |  |  | 0.0711 | 0.0813
M125W |  |  |  |  |  |  | 0.0567 | 0.0794 |  | 
D27E |  |  | 0.0749 | 0.0565 | 0.0628 | 0.0502 |  |  | 0.0579 | 
G35I |  |  |  |  |  |  | 0.0667 |  |  | 
F226V |  | 0.0679 |  | 0.0541 |  | 0.0604 | 0.0907 |  |  | 0.0698
W203P | 0.0666 |  | 0.0577 |  | 0.063 |  |  | 0.0638 |  | 
F65V | 0.0389 | 0.0582 |  |  |  |  | 0.0693 |  |  | 

Same assay, conditions: temperature: 34 °C; time window: 0-4 h after rhamnose induction

Variant | area with substrate INLYFQS | area with substrate QNLYFQS | area with substrate RNLYFQS
T233Y | 0.0584 |  | 
K66H |  | 0.0706 | 
W141N |  | 0.0513 | 0.0426
Q227A |  |  | 0.0656
W212A |  |  | 0.0663
K7S |  | 0.0888 | 
E195S |  | 0.0747 | 
S209R | 0.0508 |  | 
F65V |  | 0.0767 | 
